# From the supplement of paper PMC11417369
# Some of the results follow.
# Tested on: PF3D7_0420300 AP2 domain 1 (GST-tagged)
# Experiment: gcPBM binding intensity (ln(normalized median fluorescence intensity)); higher = stronger DNA binding
# Summary of the method: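 GST-fused DNA-binding domains of P. falciparum, expressed in E. coli, were applied at about 25 μg on average for 1 h to an Agilent 4 × 180k array of primer-extended double-stranded 36-bp intergenic genomic probes and negative controls. Binding intensity is the highest Masliner-normalised natural-log median intensity across replicate spots of either probe orientation, measured with Alexa488 anti-GST antibody and a 488 nm scan.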
row,Sequence,gcPBM binding intensity (ln)
1,AAAAAAAAAATATTTGAACACACGAGGATATATAAA [CACACA_site139],9.52
2,TATATTTAATTATTTTGTACTCATATAAAGATGATG [XGTACX_site5488],9.04
3,TACAGACATACATACACACATACATACAGACATACA [CACACA_site1941],9.79
4,TACATATTTACTATCACACACACGATATAAATAAAT [CACACA_site6701],9.92
5,CATATATACCTATATACACACATATAGATTTATATA [CACACA_site6451],9.35
6,TTATTCTACATATATGCATGTGTATGATCTGTTTAT [TGCATGCA_site782],9.42
7,AAAATAAAAAAAATGTAAAAGGTTAAAGTGAAATAT [CACACA_negctrl_site350],9.68
8,ATATAAATGATATGTACACACATTTATATATATAAA [CACACA_site3475],9.41
9,TGATATTATCTCTTCACACACTCACATACAGACAAA [CACACA_site1246],9.37
10,TAAAAATTAAAATGTTGTACAATGATAAAATATTAT [XGTACX_site7874],9.31
11,TATTTGATAAAAAAAAGTACTAGAATTTCGCTTTTG [XGTACX_site7754],9.07
12,ATTTATTTATATACAAGTACATAAAAAATTAACTTA [XGTACX_site6170],8.88
13,AAATTATAAAATAACTGTACCAATCCTTTTTTTTTA [XGTACX_site2229],9.01
14,TAAATTGAAATATATTGTACATTATCAACTAAGGGA [XGTACX_site1635],9.18
15,CTCAACATATACGTAACACACATATAAATATAAATA [CACACA_site7749],9.51
16,TGTAGTCTGGAGAAAAGTACATAGTATCTGGTAACA [XGTACX_site4940],9.2
17,TTTTAATTTTAAAAATGTACTTTTATTATTTTTAAT [XGTACX_site8300],9
18,AAATAGTTAAAAAGGCGTACACATAAATAAATAAAT [XGTACX_site2096],9.66
19,TATTATATGTAGTTGAGTACATATAAATACATATAT [XGTACX_site7933],9.1
20,AATCTAATATAATGCACACATAAAAAAAAATCAAAC [CACACA_site3633],9.8
21,CCTCCATTAGATACTTGTACATAAAAGTTTTGATTG [XGTACX_site7428],9.14
22,AATCATAAAATCATATGTACACATTTTTCCTATGAT [XGTACX_site8799],9.36

row,Sequence,gcPBM binding intensity (ln)
1,AGACTTTGTACAAACACACACATGAACACAATATTA [CACACA_site1360],9.85
2,ATTTTATTAATTTGGTGTACTTAATTTATATTTTTC [XGTACX_site4947],9.41
3,AAAAAAAAAAAATAATAAATAAATAAAAATAAATGA [CACACA_negctrl_site1623],9.29
4,ATATTTAAAAAAGAGTGTACTCATCTCTTTTAAAAA [XGTACX_site1160],8.89
5,GTGTATTTATGTTATACACACAAAAATATTTTGTAT [CACACA_site4305],9.5
6,AATGTAGGTTTATTTACACACAAATATAGATATATA [CACACA_site6825],9.56
7,ATGTTGCTCATATGAGTGCACGTTTCATTTCAGTTT [GTGCAC_site9865],9.49
8,CTATTTCGTATATATAGTACATATTATAACATACTA [XGTACX_site978],9.35
9,AATTTATATAATTTTGTGCACAATATTCATGTATAT,9.37
10,ACAAAATAAAAACACACACACAAACACAAAAAAATA [CACACA_site3390],10.3
11,AGCTCTTGTCATTTTGCACACACACCGGTATAGGTT [CACACA_site5654],10.1
12,TATATATACAGACACATACACACAAATAAAAAAACA [CACACA_site3413],10.1
13,AGAAGGTAAAAACACACACACACATACAAAAAAAAA [CACACA_site3767],10.1
14,TATACATACTCACCCACACACAAAAAAAAAAAAAAA [CACACA_site862],9.34
15,TATTTAATGTGATACTTATATTATTTTATGATTAAA [GTGCAC_negctrl_site25],9.06
16,TATATAAGAATTTTTACACACATGAAAATGTAGATA [CACACA_site3735],9.33
17,ATATGTGTGTAGTGTTCAATTATATTGATGTGAAGG [TGCATGCA_negctrl_site462],9.64
18,GAACCGTGCAAATGTTGTACACTTTAAAAATATTCT [XGTACX_site4488],9.21
19,ATAATATATATATTAACACACATCCTTTTATGTATA [CACACA_site1203],9.54
20,TTATAATAATTTTATGCACACAGAAAAATACAAGGT [CACACA_site9169],9.61
21,TAGGAGCCTAGACACACACACAAAAAAAAAAAAAAA [CACACA_site6911],9.39
22,TACATATAGAAACACACACACATATATATATATATA [CACACA_site1300],9.72
